This is an account of results in a collection of fitness landscapes (doi:10.1016/j.celrep.2020.107928).

First the molecules themselves.
B1: Caulobacter ParB omega fusion; a variant is named by its letters at X, in order, B8GW30 (parent)
chain: MESVVVGEPGMSEGRRGLGRGLSALLGEVDAAPAQAPGEQLGGSREAPIEILQRNPDQPRRTFREEDLEDLSNSIREKGVLQPILVRPSPDTAGEYQIVAGERAWRAAQRAGLKTVPIMVRELDDLAVLEIGIIENVQRADLNVLEEALSYKVLMEKFERTQENIAQTIGKSXSHVANXMRLLXLPDEVQSYLVSGELTAXHARAIAAAADPVALAKQIIEGGLSVRETEALARKAPNLSAGKSKGGRPPRVKDTDTQALESDLSSVLGLDVSIDHRGSTGTLTITYATLEQLDDLCNRLTRGI

In all, about 81,000 sequences were measured (“one-hybrid fitness for binding NBS DNA”: median about -0.1, highest 2% from about 0.36 on). Some of the results follow.

In the assay the parent is B1. Description: one-hybrid fitness for binding NBS DNA (the Noc-binding site; scaled: cognate 1, non-cognate 0); higher = stronger binding. The following applies: with NBS DNA site. The method in brief: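 Caulobacter ParB libraries with four specificity codons randomised were screened by bacterial one-hybrid selection in the E. coli USO strain, using a HIS3 reporter whose site lies 19 bp from the promoter. Selection ran for 48 hours at 37°C on M9 lacking histidine, with 0.1 mM IPTG and 5 mM 3-AT. Plasmids were Illumina-sequenced before and after selection, three replicate libraries were pooled, and variants with under 10 reads were dropped. Fitness is the log change in each variant's read ratio to wild type, rescaled against the cognate and non-cognate sites.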
Regarding RNEW, the “one-hybrid fitness for binding NBS DNA” value was at most 0.2. Then PVMI, with at most 0.2; and LFDQ, with at most 0.2. For the variant HMMS, the “one-hybrid fitness for binding NBS DNA” value is at most 0.2. With ALIS, the “one-hybrid fitness for binding NBS DNA” value was at most 0.2. Then IPGG, with at most 0.2.

In the case of TPNW, the “one-hybrid fitness for binding NBS DNA” value was at most 0.2. Then STEK, with at most 0.2; and LGDK, with at most 0.2; and NAWC, with at most 0.2. Then AIRH, with at most 0.2. For the variant RIHQ, the “one-hybrid fitness for binding NBS DNA” value was at most 0.2. Then DESR, with at most 0.2. As for RTDT, the “one-hybrid fitness for binding NBS DNA” value stood at 0.284. Then QVVP, with at most 0.2; and NDCG, with at most 0.2. To GANY belongs at most 0.2; to GHNS, at most 0.2. Then KSGN, with at most 0.2; and TCKR, with 0.262.

On to PWQC, for which the “one-hybrid fitness for binding NBS DNA” value was at most 0.2. Then KLAR, with at most 0.2; and KAYA, with at most 0.2; and TGCC, with at most 0.2. Then YYGT, with at most 0.2; and IYPC, with at most 0.2; and VEFT, with at most 0.2. Then ESFI, with at most 0.2; and CNLV, with at most 0.2. As for TIKT, the “one-hybrid fitness for binding NBS DNA” value was at most 0.2.

Regarding ITNL, the “one-hybrid fitness for binding NBS DNA” value is at most 0.2. To GTMT belongs at most 0.2; to SFAY, at most 0.2. Then QLNC, with at most 0.2; and YTKD, with at most 0.2; and TSSE, with at most 0.2. To KFVS belongs at most 0.2; to AAPT, at most 0.2. For the variant AQPV, the “one-hybrid fitness for binding NBS DNA” value was at most 0.2. Then RKRQ, with 0.246; and RSMI, with at most 0.2. Then AFFK, with at most 0.2; and MRSV, with at most 0.2. Then QAEW, with at most 0.2; and CVRW, with at most 0.2; and LTIF, with at most 0.2.

With VVAV, the “one-hybrid fitness for binding NBS DNA” value was at most 0.2. Then TQVQ, with at most 0.2; and PRSW, with at most 0.2; and IKYM, with at most 0.2. To VVQG belongs at most 0.2. To LDGF belongs at most 0.2. Consider KDMV, for which the “one-hybrid fitness for binding NBS DNA” value is at most 0.2. Then APQG, with at most 0.2. Consider SYTR, for which the “one-hybrid fitness for binding NBS DNA” value was at most 0.2. As for FLKT, the “one-hybrid fitness for binding NBS DNA” value was at most 0.2. To DACS belongs at most 0.2; to PVTL, at most 0.2; to CIYT, at most 0.2. To TRAG belongs at most 0.2; to GETA, at most 0.2; to YVVS, at most 0.2. Then DRPI, with at most 0.2.

As to ITLT, the “one-hybrid fitness for binding NBS DNA” value was at most 0.2. Then ALAC, with at most 0.2. Then SKNS, with at most 0.2. Then KMLP, with at most 0.2. For the variant TFLV, the “one-hybrid fitness for binding NBS DNA” value was at most 0.2. To NHSS belongs at most 0.2; to CYGC, at most 0.2; to RQVP, at most 0.2. To PPHI belongs at most 0.2. To GNRT belongs at most 0.2; to SDNI, at most 0.2. YHWW: the “one-hybrid fitness for binding NBS DNA” value was at most 0.2. Turning to IMII, the “one-hybrid fitness for binding NBS DNA” value is at most 0.2.

On to GCQT, for which the “one-hybrid fitness for binding NBS DNA” value is at most 0.2. Then RGEE, with at most 0.2; and KTNG, with at most 0.2. RDKR: the “one-hybrid fitness for binding NBS DNA” value was at most 0.2. To HQHW belongs at most 0.2. Then NADC, with at most 0.2. Then QYIG, with at most 0.2. As to REQR, the “one-hybrid fitness for binding NBS DNA” value is at most 0.2.
